The whole screen tested about 270,000 compounds, of which about 620 (0.23%) were called active. This list was built around the results that the source calls inconclusive (neither active nor inactive); the mix of calls is not that of the screen. Calls come from the whole dose curve; as a rule, active = well fitted inhibition curve with a large enough effect in the polarisation, with a control signal flat (not every such curve was filed as active); inconclusive = small, poorly fitted or top-dose-only effect, or effect the other way, or a change in a side signal; inactive = no such curve, though single readings can be large or run the other way; the % refers to the polarisation. Where the call is inconclusive, the potency comes from a doubtful curve fit. “Side channel” marks fits to a control or component signal instead of the main read-out.
What follows are compounds tested against Menin (Homo sapiens) (UniProt O00255) (assay: qHTS Assay for Inhibitors Targeting the Menin-MLL Interaction in MLL Related Leukemias: Competition With Texas Red Labeled MLL-derived Mutant Peptide). Settings: fluorescence polarization; series mostly up to 61.6 µM.
Sequence of UniProt O00255 (O00255 whole entry, looked up): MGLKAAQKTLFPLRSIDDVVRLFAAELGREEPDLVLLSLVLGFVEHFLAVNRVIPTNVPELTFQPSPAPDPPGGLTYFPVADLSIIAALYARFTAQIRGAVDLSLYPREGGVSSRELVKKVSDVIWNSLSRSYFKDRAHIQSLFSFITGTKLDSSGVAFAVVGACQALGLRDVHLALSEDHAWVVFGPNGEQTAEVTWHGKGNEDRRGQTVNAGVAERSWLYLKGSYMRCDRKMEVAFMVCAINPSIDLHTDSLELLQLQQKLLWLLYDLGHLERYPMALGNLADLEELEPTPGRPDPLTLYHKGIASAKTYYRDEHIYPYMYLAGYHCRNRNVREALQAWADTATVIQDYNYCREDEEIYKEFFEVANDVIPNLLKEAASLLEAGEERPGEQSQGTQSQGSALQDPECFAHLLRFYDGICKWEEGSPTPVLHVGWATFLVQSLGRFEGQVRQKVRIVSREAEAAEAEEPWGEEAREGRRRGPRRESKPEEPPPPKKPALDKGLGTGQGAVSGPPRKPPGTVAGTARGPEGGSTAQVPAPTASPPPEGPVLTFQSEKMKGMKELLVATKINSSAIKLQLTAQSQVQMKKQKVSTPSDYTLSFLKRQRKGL
Potency is the fitted concentration of half-maximal effect; tags give direction and shape of the fitted curve or compound fluorescence and quenching.

Compound | Potency
CCOc1ccc(Nc2nc(Cl)nc(N3CCN(c4ccc(OC)cc4)CC3)n2)cc1 | inconclusive: 14.1 µM [quencher, side channel, partial curve]
N#Cc1c(N2CCCC2)nc(N)c2c(N)nc(N3CCCC3)cc12 | inconclusive: 2.82 µM [quencher, side channel, full curve, poor fit]
COc1ccc(CN2CCN(Cc3ccc(C(F)(F)F)cc3)CC2)c(OC)c1 | inconclusive: 20 µM [inhibitor, partial curve]
COc1ccc(/C=C2\Oc3cc(OCC(N)=O)ccc3C2=O)cc1OC | inconclusive: 31.6 µM [quencher, side channel, single point]
CCC(Sc1nc(C)cc(=O)[nH]1)C(=O)Nc1nc(-c2ccccc2)cs1 (stereo not given) | inconclusive: 31.6 µM [quencher, side channel, partial curve]
COc1ccc(CN(C)S(=O)(=O)c2nnc(NC(=O)c3cccc(OC)c3)s2)cc1 | inconclusive: 31.6 µM [quencher, side channel, single point]
COc1ccc(CNC(=O)CN2C(=O)CSc3ccc(S(=O)(=O)N4CCOCC4)cc32)cc1 | inconclusive: 10 µM [quencher, side channel, full curve, poor fit]
CCCCc1ccc(NC(=O)COc2ccc(C(=O)Nc3ccccc3C)cc2)cc1 | inconclusive: 28.2 µM [inhibitor, single point]
Cn1nc(C(=O)N2CCN(c3ccc([N+](=O)[O-])cc3)CC2)c2c1-c1ccccc1S(=O)(=O)C2 | active: 25.1 µM
COc1ccc(-c2cc(C(=O)Nc3cc(C)ccc3O)no2)cc1 | inconclusive: 39.8 µM [fluorescent, side channel, single point]
Cc1ccccc1N(C)S(=O)(=O)c1nnc(NC(=O)c2ccco2)s1 | inconclusive: 17.8 µM [quencher, side channel, partial curve]
O=C(CCCn1c(SCc2cccc(F)c2)nc2ccccc2c1=O)NCC1CCCO1 (stereo not given) | inconclusive: 14.1 µM [fluorescent, side channel, partial curve]
CSc1ncccc1C(=O)OCC(=O)c1cc2ccccc2o1 | inconclusive: 22.4 µM [quencher, side channel, partial curve]
Cc1ccccc1C(=O)NNC(=O)C(C)N1C(=O)c2ccccc2C1=O (stereo not given) | inactive
COc1cccc(CN2CCNC(=O)C2CC(=O)N2CCCCO2)c1OC (stereo not given) | inconclusive: 5.01 µM [inhibitor, full curve]
O=C(C1CCCC1)N1CCC(CO)(Cc2ccccc2Cl)CC1 | inconclusive: 31.6 µM [fluorescent, side channel, partial curve]
CCN(c1ccccc1)S(=O)(=O)c1ccc(C(=O)N(CCN(C)C)c2nc3c(F)cc(F)cc3s2)cc1 | inconclusive: 10 µM [fluorescent, side channel, partial curve]
COc1cc(C2CC(c3ccccc3)=NN2c2ccccc2)ccc1OCC(=O)O (stereo not given) | inconclusive: 0.708 µM [quencher, side channel, full curve, poor fit]
CCOc1cc(/C=C2\CCCc3c2nc2ccccc2c3C(=O)O)ccc1OC | inconclusive: 3.16 µM [quencher, side channel, partial curve]
CC(C)(C)SCCSC1=CC(=O)CC(c2ccccc2)C1 (stereo not given) | inconclusive: 31.6 µM [fluorescent, side channel, partial curve]
O=C(CSc1ncc(-c2ccc(F)cc2)[nH]1)NCc1ccco1 | inconclusive: 35.5 µM [quencher, side channel, single point]
Cc1nn(CCc2nn[nH]n2)c2nc(-c3ccc(Br)cc3)cc(C(F)(F)F)c12 | inconclusive: 20 µM [quencher, side channel, partial curve]
O=C(Nc1ccc(Oc2c(F)c(F)c(F)c(F)c2F)cc1)OC1CCN2Cc3ccccc3N=C12 (stereo not given) | inconclusive: 3.16 µM [fluorescent, side channel, full curve, poor fit]
CCCCOc1ccc(C(=O)N/C(=C/c2cccc([N+](=O)[O-])c2)C(=O)O)cc1 | inconclusive: 20 µM [quencher, side channel, partial curve]
O=C(C1=C[C@@H](c2ccc(C(F)(F)F)cc2)C[C@@H](OCc2ccc(CO)cc2)O1)N1CCN(Cc2ccc3c(c2)OCO3)CC1 | inconclusive: 3.55 µM [fluorescent, side channel, full curve]
Cc1cc(O)c(C(C)C)cc1NS(=O)(=O)c1ccccc1 | inactive
Cn1c(C(=O)NCCN2CCCCCC2)cc2c(=O)n(C)c3ccccc3c21 | inconclusive: 20 µM [fluorescent, side channel, partial curve]
CC1(C)Cc2ccccc2C(NNC(=O)c2cccnc2)=N1 | inactive

Compound | Potency
Cc1ccc(N=c2c([N+](=O)[O-])nn(-c3ccc4c(c3)OCCO4)n2O)cc1F | inconclusive: 28.2 µM [quencher, side channel, single point]
O=C(N/N=C/c1c(O)n(Cc2ccccc2)c(=O)c2ccccc12)c1cccnc1 | inconclusive: 17.8 µM [quencher, side channel, partial curve]
CC(C)(C)NS(=O)(=O)c1ccc(NC(=O)C(Sc2ccccc2)c2ccccc2)cc1 (stereo not given) | inconclusive: 39.8 µM [inhibitor, single point]
Cc1cc(N2CCCCC2)nc(SCC(=O)c2ccccc2)n1 | inconclusive: 14.1 µM [inhibitor, partial curve]
COc1ccc(/C=C/C(=O)/C=C/c2ccc(OC)cc2OC)c(OC)c1 | inconclusive: 11.2 µM [inhibitor, partial curve]
COC(=O)c1cc2sc(Cl)cc2n1CC(=O)Nc1cccc(SC)c1 | inconclusive: 39.8 µM [inhibitor, single point]
CCCn1c(=O)c(C(=O)Nc2ccccc2)c(O)c2ccccc21 | inconclusive: 39.8 µM [inhibitor, single point]
Cc1cccc2c(N=Nc3ccc(S(=O)(=O)Nc4ccc(Cl)cc4)cc3[N+](=O)[O-])c(O)[nH]c12 | inconclusive: 3.16 µM [quencher, full curve]
CC(C)(C)c1ccc(CNc2ccc([N+](=O)[O-])cn2)cc1 | inconclusive: 39.8 µM [quencher, side channel, single point]
COc1ccccc1Nc1nc2nonc2nc1N1CCC(C)CC1 | inconclusive: 2.82 µM [inhibitor, partial curve]
CC1=C(C(=O)O)N2C(=O)C(NC(=O)C(N)c3ccccc3)C2SC1 (stereo not given) | inactive
Cc1onc(-c2ccccc2)c1C(=O)n1nnc2ccccc21 | inactive
CC(C)(c1ccccc1)c1ccc(OCC(O)CNC2CCN(Cc3ccccc3)CC2)cc1 (stereo not given) | inconclusive: 2.82 µM [fluorescent, side channel, full curve, poor fit]
Cc1ccc2c(c1)c1cccc3c1n2CCN3CCC(N)=O | inconclusive: 25.1 µM [quencher, side channel, single point]
C/C(=N\Nc1cccc(C(=O)O)c1)c1ccc(Cl)s1 | inconclusive: 20 µM [quencher, side channel, partial curve]
O=C(Nc1ccc(Cl)cc1)c1ccc(S(=O)(=O)N2CCOCC2)cc1 | inconclusive: 35.5 µM [quencher, side channel, single point]
CCn1c(NC(=O)c2ccc(COc3ccc(C)cc3[N+](=O)[O-])o2)nc2ccccc21 | inconclusive: 7.08 µM [quencher, side channel, partial curve]
OC[C@@H]1O[C@](CO)(O[C@H]2O[C@H](CO)[C@@H](O)[C@H](O)[C@H]2O)[C@H](O)[C@H]1O | inactive
C/C(=N\NC(=S)Nc1ccccc1C)c1ccc(O)cc1 | inconclusive: 14.1 µM [quencher, side channel, partial curve]
CCC(=O)c1cn(CC(=O)Nc2ccc(OC)cc2)c2ccccc12 | inconclusive: 35.5 µM [inhibitor, single point]
Cc1cc(N2CCN(C(=O)/C=C/C(=O)O)CC2)c2ccccc2n1 | inconclusive: 10 µM [inhibitor, partial curve]
N=c1c(S(=O)(=O)c2ccc(Br)cc2)cc2c(=O)n3ccccc3nc2n1Cc1ccco1 | inconclusive: 3.16 µM [quencher, side channel, single point]
CCCCCCN(C(=O)CCCCCN1C(=O)NC(c2cccc([N+](=O)[O-])c2)C(C(=O)OCc2ccccc2)=C1C)C(C(=O)NCCCC)c1ccc(OCC(=O)OC)c(C(=O)OC)c1 (stereo not given) | inconclusive: 15.8 µM [inhibitor, partial curve]
CC(CCc1ccccc1)NC(=O)COC(=O)C1CCC(C(C)(C)C)CC1 (stereo not given) | inconclusive: 25.1 µM [fluorescent, side channel, partial curve]
CCn1c(=S)sc2c(=O)n(CC(=O)Nc3cc(OC)ccc3OC)c(C)nc21 | inconclusive: 11.2 µM [quencher, side channel, partial curve]
CCOc1ccc(N2C(=O)/C(=C/c3ccco3)N(C)C2=S)cc1 | inconclusive: 14.1 µM [quencher, partial curve, poor fit]
CCCCCCC(=O)Nc1nc(C)c(-c2csc(Nc3cc(Cl)ccc3C)n2)s1 | inconclusive: 3.98 µM [quencher, side channel, partial curve]

From PubChem BioAssay AID1768 (National Center for Advancing Translational Sciences (NCATS), 2009)
